Results: the supplement of paper PMC11417369
The other results are listed elsewhere or left out.

Each sequence was assayed on PfSIP2 AP2 domain 1 (GST-tagged) (assay: gcPBM binding intensity (ln(normalized median fluorescence intensity)); higher = stronger DNA binding).
Method in brief: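 Plasmodium falciparum DNA-binding domains carrying a GST tag were expressed in E. coli and applied for 1 h, at about 25 μg on average, to an Agilent 4 × 180k array. The array held primer-extended double-stranded 36-bp intergenic genomic probes together with negative controls, and binding took place in 1× PBS with 1% milk, 0.2 mg/ml BSA, 0.5% salmon testes DNA and 0.03% Triton X-100. An Alexa488 anti-GST antibody detected bound protein, and the array was scanned at 488 nm. Binding intensity is taken as the highest Masliner-normalised natural-log median intensity across replicate spots of either probe orientation.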

Sequence | gcPBM binding intensity (ln)
TTTCCGTATAATTTTGCACACGAATATAAATTTGAT [CACACA_site137] | 7.38
ATAGTTTTACACATTTGTACATAATTTACAACAAAA [XGTACX_site25] | 7.31
ATATATATATATTCCACACACACACTAATAAAAAAA [CACACA_site9214] | 8.93
TTTAATCAAATTAAAAGTACAGAATTGTTCATGTAG [XGTACX_site1229] | 7.22
AAAAAATATTATATATGTACATAATATTTTTTTTTT [XGTACX_site5909] | 6.86
TTTTACAATGAAATATGTACTTAAATGTCCAAATTC [XGTACX_site781] | 6.79
TATATAAGAATATATACACACATATATGTATATATA [CACACA_site2178] | 7.23
AAAAAGAAAAATTGCACACACTTATAAAAATATACG [CACACA_site6074] | 7.32
GTTAACAAATAATGCACACAAATGGATAAAATTATA [CACACA_site3725] | 7.68
TTAACCATTAATTCTCTACACACTTTTATTTTATTT [CACACA_site8522] | 6.94
TATTATTAATATGTATGGTTGTAATCTGTGTCTCCT [TGCATGCA_negctrl_site190] | 7.12
AATATAATTTTTTATTGTACAAAAAAATTATTTAAT [XGTACX_site3248] | 7.04
AAGAACAAATATGAGGTGCAACACAATATATTATTA [GTGCAC_site9965] | 10.5
AATAAGTATACACATACACACACACCCAAAAAAAAA [CACACA_site8034] | 7.13
CATTTTGTAAGATATGCACACATGGATCATATTTTA [CACACA_site423] | 6.94
TTTTTTTTTATCAAATGTACATATATATAATAATAA [XGTACX_site3941] | 7.39
ATGGGTATTAAGTGTACACATATAGTGTATTTTGTT [CACACA_site4452] | 6.98
GTGTAAATATAATTAGTTTCACAAAACAAATATTTA [CACACA_negctrl_site717] | 6.72
AGGCACAAAATTAAATGTACATATATATATATATAT [XGTACX_site3323] | 9.42

Sequence | gcPBM binding intensity (ln)
GATTACTAGAAATGCACACACTGATAAAATAAGGAA [CACACA_site6131] | 7.82
TATATATATGAGTATACACACCTGATAAAGGTATAT [CACACA_site5462] | 7.18
TTAAACTTGAAACACACACACACACCGATATAAAAA [CACACA_site4578] | 7.03
ATAAAAATATTGTCTAGTACATATTTATAATAAAAA [XGTACX_site7523] | 6.89
AGAAATATATCTATTTGTCCGTATATTCATATTTAT [XGTACX_site8427] | 6.79
AGATTGGAACATTAAAGTACTTACTTTTTTTTTTTT [XGTACX_site8017] | 6.74
ATTTTTTTTTTTTTTTTTTTTGCACCATAAAATAAT [CACACA_negctrl_site1324] | 11.3
TATATACTCAAACACACACACACATACACAGACATA [CACACA_site5025] | 7.35
ATTTTGACATTATATAGTACATATAATTTACATTTA [XGTACX_site3024] | 7.15
TATATATATATGTGTACACATTTGTCAGATTATATA [CACACA_site4813] | 9.14
ATATATTTAAACAAAAGTACAAATCATAAATTCAAG [XGTACX_site3633] | 6.87
TATATATTCTTTTAATGTACATATTGTATTATATCC [XGTACX_site4501] | 7.14
TCTTTATCTTCTTATACACACATTTATTAAAAAAAA [CACACA_site445] | 7.58
TGACATAAAAAATATACACACTATAATATTTATACT [CACACA_site6776] | 6.91
ATTTTTTAAAAAGTAACACACACTCTTATATATAAT [CACACA_site9206] | 7.13
ATAAAACGAAGATGTTGTACGTACAAATAAATGAAT [XGTACX_site2472] | 7.77
ATAACTTTTTAAAAGACACACATAAGAAAAACAAAA [CACACA_site723] | 7.32
TTAATTAATTTTTCAGTGCAAATAAAAAATATTTAA | 7.78
CAAAAGTAAGCACGCACACACAACATGAAATAAACT [CACACA_site6223] | 7.09

Sequence | gcPBM binding intensity (ln)
TATCTTATAAACTCTGCACACATAATATATTAAATG [CACACA_site8587] | 9.1
TATACGCAGAAACACACACACATACACCCACATACA [CACACA_site1723] | 7.19
AACGTTCATAATTATTGTACCCTCATTTTATTTTTT [XGTACX_site503] | 6.94
AAAAATTTTAATTAGGAACACACATATATATATATA [CACACA_site9016] | 9.37
TATATTAGAAAGGATACACACATATATATATATCTA [CACACA_site570] | 7.02
ATATATATGTATGTATGTACACACAAAAAATGGAAT [XGTACX_site7879] | 7.8
TACAAAATAAATGGAACATGCAAAAAAATTGATTAA [TGCATGCA_site790] | 6.67
AAAAAAAAAAAAAAAACACACATTTTAAGAAAAAAA [CACACA_site2926] | 7.74
ATATGCTATTATATATGTACACACCAATTTATTTAT [XGTACX_site8364] | 7.15
ATATATATATGTTTGTGTACTTATGATATCATATAA [XGTACX_site3276] | 9.09
ATTATATTCTTTACTACCAATTAGTAGAAAATAAAA [CACACA_negctrl_site1096] | 6.97
AATATATATATATATATTTTTGTTAGAATATGGAAT [GTGCAC_negctrl_site434] | 7.21
TTAAAATAGCTAGTTTGTACATAAAATATATTACTT [XGTACX_site202] | 6.8
TAAATAAATAAAAATAGTACATAATTATTATTATTA [XGTACX_site4981] | 6.98
TTTTAAAAAATATAATAATATAAATATGTTTTATAC [CACACA_negctrl_site643] | 7
CTTAATAAGAATAAATGTACAAGGGATAAAAAATTT [XGTACX_site3213] | 7.12
ATAGAATATTAATAATTAAAAATAAAATAAAATAAA [CACACA_negctrl_site1810] | 6.87
TATTTAATTATTTGTAGTACGATTAATATTTAATGA [XGTACX_site3553] | 7.05
ACATTCATAAAAAAAAGTACATTTTTTATAAAAGAA [XGTACX_site6197] | 7.32
